Measured values taken from the supplement of paper PMC3334620.
The full ranking holds about 33,000 sequences; the median of “E-score (-0.5 to 0.5)” is about -0.012, and the highest 2% start at about 0.27. This is one part of the list.

target: T1, Vhr1 (UniProt P40522); experiment: PBM E-score (8-mer binding enrichment) (E-score (-0.5 to 0.5)); higher = stronger / more preferred TF binding; most listed sequences are background and not binding sites; details: protein concentration: 200 nM; construct: GST-full length
T1 sequence: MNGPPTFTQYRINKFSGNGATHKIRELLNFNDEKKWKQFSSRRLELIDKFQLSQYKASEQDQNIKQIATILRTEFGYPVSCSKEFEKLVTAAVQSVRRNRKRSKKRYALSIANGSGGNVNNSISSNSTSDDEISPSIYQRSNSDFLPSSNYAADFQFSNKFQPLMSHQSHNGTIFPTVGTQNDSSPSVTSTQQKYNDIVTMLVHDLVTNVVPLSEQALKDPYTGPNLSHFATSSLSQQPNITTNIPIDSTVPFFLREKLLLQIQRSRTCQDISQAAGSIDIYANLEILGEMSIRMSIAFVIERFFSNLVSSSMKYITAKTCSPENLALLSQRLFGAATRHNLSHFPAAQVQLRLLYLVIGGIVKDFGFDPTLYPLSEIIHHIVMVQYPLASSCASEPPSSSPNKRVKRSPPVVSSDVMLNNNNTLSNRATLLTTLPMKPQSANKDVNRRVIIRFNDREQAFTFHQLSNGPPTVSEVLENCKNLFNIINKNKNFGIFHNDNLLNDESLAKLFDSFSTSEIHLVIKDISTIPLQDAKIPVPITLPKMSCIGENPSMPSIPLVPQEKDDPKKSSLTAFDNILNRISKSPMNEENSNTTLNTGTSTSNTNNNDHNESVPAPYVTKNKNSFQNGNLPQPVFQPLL
Method in brief: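 Full-length yeast transcription factors or their DNA-binding domains, GST-tagged and expressed with PURExpress, were applied at about 100-200 nM to universal all-10-mer Agilent arrays. These arrays had been made double-stranded by primer extension on fresh or once-stripped slides. Detection used fluorescent anti-GST, normalisation used masliner, and E-scores for ungapped eight-base words pooled with reverse complements came from the Universal PBM Analysis Suite.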

Sequence | PBM E-score
CAAACGGC | -0.0569
ATTGAAGG | -0.13
CCTGTGAC | 0.188
AAGCTGAC | -0.0106
CCGGCATC | 0.027
AAATGCCG | -0.128
CCGAACCA | 0.0572
TCGGAGCA | -0.176
AGCCCGCA | -0.0483
ACCTGAGA | -0.109
CCCTCTAC | -0.113
AATGATTC | 0.406
ACCGACCC | 0.0413
GAGCCCGA | 0.129
ACCGCAGT | 0.0981
AAAAGGAC | -0.198
AACCACTG | 0.161
CCCTATGC | -0.00502
AGAAAGCG | -0.187
ACTTCGGA | -0.00447
CCTAAGGA | -0.191
AGGCGACT | 0.206
CAACACCG | 0.0548
CTATAGTC | 0.0579
ACTTACAA | -0.0175

Sequence | PBM E-score
AAGAGTAA | -0.0581
ATTCCTCG | 0.0976
AACCGTAT | -0.13
ACTCCCCA | 0.106
AGTGTCTA | 0.0048
CCGCCCCA | 0.349
CGTAATCA | 0.273
CTTACTCC | 0.0868
ATGGGTAA | 0.269
GTGGCAAC | -0.161
CGGATCCG | 0.0101
GGCCCTAA | -0.196
TATAGGGA | 0.0239
CAGAGTCA | 0.344
TATTCCCA | -0.181
AGATGGTC | -0.0726
GAGACTAA | -0.00777
CGGGCAGC | 0.0935
CACCCGCG | 0.218
AGCCGTTA | -0.199
GCGGGTCA | 0.308
CTAGTCAG | 0.247
GCCGCGGA | 0.117
CTTACAAG | -0.238
AAATTTGA | -0.111

Sequence | PBM E-score
ACATACCT | 0.089
GCGATTCC | 0.227
GTACTGAC | 0.214
CGATCTTC | -0.0711
AACTACGG | -0.192
CCCCGTTA | -0.095
AACGCTCT | -0.167
AGGAGGTC | -0.125
CAGCCCAG | 0.0143
CTAAGCAC | 0.0457
GACTAGGC | 0.0856
CCCAATGA | 0.112
AAGGTGCT | -0.198
TCGAAAGA | -0.109
GGATCTAC | -0.068
ATACAAGA | 0.107
AACTGACC | -0.103
CGATGTAA | 0.0662
CTCCATCC | -0.162
GGTATGGA | -0.0842
AACAACCA | 0.137
ACGCGTAG | -0.0237
CATCACGG | -0.053
GCAGCCGC | -0.0178
CTAAATTA | 0.0589

Sequence | PBM E-score
AGTAGCGC | 0.0112
GCTTGGAC | -0.218
GGTCGCCA | -0.0181
AAAACTTG | -0.0981
CACGGGAC | 0.00745
GCCCAAGC | -0.0541
AATGCGAC | 0.201
CTCCCTTA | -0.0992
CCCATGTC | 0.0407
CCATCCTA | 0.119
CGGGCCAC | 0.0818
TAGAATCA | 0.185
ACTAGTGA | -0.0122
ATTAACCC | 0.175
CGGCGGTC | -0.0157
CCTCACTC | 0.0373
AGGCTAAC | -0.107
GTGTTGTA | 0.0384
CAACACCC | 0.106
CTCGCCCC | 0.0459
TAGTAAGA | -0.104
ATAATAAG | 0.032
CGCGGGAA | 0.105
GTGAGTTA | 0.137
AGTGATGA | 0.207

Sequence | PBM E-score
CTCGCAAG | 0.149
AGTATTAA | 0.164
CAACTGAA | 0.0597
ATGGGGCA | -0.103
GGAGATCA | 0.106
ACCCAGGC | 0.302
CCGCCGAA | 0.076
AACAAGTC | 0.0369
AAGACATA | 0.0526
CTCGGGGA | -0.00611
CTCCAGAA | -0.14
ACATCTAT | 0.0759
GGACATAA | -0.126
AGCACCCC | -0.078
AATTGGTG | 0.157
GCGTCCAC | -0.212
ACGGCGTC | -0.0609
CGTATAAC | 0.0607
GCTTAAAA | -0.0463
CATTTCCA | 0.0774
ATACTGCC | 0.0148
AATGAGCG | -0.0139
CGATATCC | 0.0969
ATAGCTTG | -0.146
ACGCTGAT | 0.155

Sequence | PBM E-score
AACCGGCT | 0.07
GTAAAATA | -0.174
CAGTGTCC | 0.0431
CCACCTTA | -0.0749
GTCAGGAA | 0.0818
AACGACCA | -0.0478
GGGGGCTA | -0.322
AGAACTGG | 0.00338
GGAGGACA | -0.155
ATGCTTCA | -0.231
AATGGCAT | 0.146
AATACTGA | -0.021
AAGCGACC | 0.0732
TACAGGGA | -0.0848
CGTCGGAC | -0.0628
TAAGACCA | 0.0161
ACATACGG | -0.123
CTCCACCA | 0.0478
GGTCTAAA | -0.0427
ACTTTCTA | -0.231
GAAACAAC | -0.164
CGAGCTGC | 0.126
GGACCAGA | -0.123
CGAGTTGA | 0.0202
GCACGGAA | 0.0156

Sequence | PBM E-score
GCGCATCA | 0.0373
AAAAGGGC | -0.0413
AGGTAGAA | -0.0422
CAGCTTAC | 0.00232
ATCGTACC | 0.0367
AAGTCCAA | -0.304
CACGCAAA | 0.0383
AATTTCCA | -0.0561
GGTAGGCA | -0.0869
AAAGGTGC | -0.162
GGGACTAA | -0.209
AGCTGCTC | -0.137
TAGTGAAA | -0.0264
CGTACTAG | 0.0261
GGACCTTA | -0.232
CCCTAGGC | -0.149
ATGACCGA | -0.0105
CTACCCGA | -0.00582
AGAGGCGG | 0.0282
AAACTCTG | -0.0552
CGGGCACC | 0.0253
AAAAGTTC | -0.284
ATTTTCTA | -0.0622
GGTACCAA | -0.037
GTTAGTTA | 0.137

Sequence | PBM E-score
AATAGATG | 0.0664
CGTGCTGC | 0.0243
GCCGAGCC | 0.00377
ACACTCGA | 0.149
CACTGTCC | -0.0625
AACTGATA | 0.171
CTGCAACC | 0.0785
CATTTGAA | -0.0815
CTCTCCGC | -0.0827
GTACTTTA | -0.11
CCCAGCCG | -0.064
CCGCTGGC | 0.00791
GAAACACC | 0.215
CATAAGGG | 0.039
GCCCACTA | -0.0173
AGCCTATA | -0.0617
AGTCCCCG | 0.0704
AGTGAGAT | 0.168
AATTGATC | -0.0596
CCCTTGCG | -0.156
ATGCGTAA | -0.0945
TATACCCA | 0.0126
CGCAAGTC | -0.0294
AGTGTATC | 0.169
AGGGTCGG | 0.00426

Sequence | PBM E-score
AGAGCACT | -0.0529
CGGGTATA | 0.0977
CCCAGCTA | -0.0293
GCTCATCC | 0.0555
AAACCGCC | 0.156
CGCACGTA | -0.0929
ACGCCCCC | -0.143
CAGACGTA | -0.13
GACCAAGA | -0.00356
TTCACAAA | -0.203
CAGGGATA | -0.0757
ACCATTTA | 0.0419
CTGCGGTA | 0.129
CCAATGCG | -0.066
GTTGAAGA | -0.13
TTACCTAA | -0.0877
GAATATTA | 0.212
GGGCGTAC | -0.0693
AGACGACA | -0.0527
